The whole screen tested about 410,000 compounds, of which about 5,000 (1.2%) were called active. Inconclusive results, whose numbers are uncertain, are shown with a selection of clear calls. Calls come from the whole dose curve; as a rule, active = well fitted inhibition curve with a large enough effect; inconclusive = small, poorly fitted or top-dose-only effect; inactive = no such curve, though single readings can be large or run the other way. Potencies beside an inconclusive call are fits to weak or partial responses and may not hold up.
Assay: qHTS for Inhibitors of TGF-b; note: nearly all actives have a fitted effect of over 65% in size
Conditions: HepG2 CAGA-GFP TGF-b/SMAD3 reporter, GFP fluorescence, 18 h, TGF-beta stimulated, 500 pg/mL final; series mostly up to 46.1 µM; activity, negative = inhibition: at the top concentration
Outline: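 Using HEPG2 CAGA-GFP reporter cells at 1000 cells/well, we pinned test compounds, stimulated with recombinant TGF-beta (500 pg/mL final) and measured total well GFP after 18 h.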
With `C[C@@H](C(=O)NCC1CC1)[C@H]1C[C@]1(C)[C@H](NC(=O)OCc1ccccc1)c1ccccc1` the Potency was inconclusive: 10 µM [inhibitor, partial curve]. For `O=C(CSc1ccc(S(=O)(=O)N2CCCC2)cn1)Nc1ccc([N+](=O)[O-])cc1C(F)(F)F`, the Potency was inconclusive: 17.8 µM [inhibitor, single point]. In the case of `N#CC1(Nc2cccc(Br)c2)C(=O)Nc2ccccc21` (configuration not stated), the Potency is reported as inconclusive: 17.8 µM [inhibitor, partial curve, poor fit]. For `Cc1cc(NC(=O)Cn2nc(C(F)(F)F)c3c2CCC3)no1`, the Potency was inconclusive: 4.47 µM [inhibitor, single point]. In the case of `COc1cc(C(=O)NCCN2C(=O)S/C(=C\c3cccs3)C2=O)cc(OC)c1OC`, the Potency is reported as inconclusive: 6.31 µM [inhibitor, single point]. With `Cc1ccc(-c2csc(C(C)(O)c3ccc(F)c(F)c3)n2)cc1C` (configuration not stated) the Potency was inconclusive: 25.1 µM [inhibitor, single point]. For `CS(=O)(=O)CC[C@@H](C(=O)NCCc1ccccc1)N1Cc2ccccc2C1=O`, the “activity, negative = inhibition” value was inactive: 3.61%. With `CN1C(=O)/C(=N\OC(=O)c2cccc3ccccc23)c2ccccc21` the Potency was inconclusive: 22.4 µM [inhibitor, single point]. For `CN1CCN(S(=O)(=O)c2ccc(Sc3nnnn3-c3ccccc3)c([N+](=O)[O-])c2)CC1`, the Potency was inconclusive: 3.16 µM [inhibitor, full curve, poor fit]. With `Cc1c2cc(O)c(=O)cc-2oc2cc(O)c(O)cc12` the Potency was inconclusive: 35.5 µM [inhibitor, single point]. In the case of `O=C(NCc1ccccc1Cl)C1CCCN1S(=O)(=O)c1ccc(F)cc1` (configuration not stated), the Potency is reported as inconclusive: 10 µM [inhibitor, partial curve, poor fit]. In the case of `CN(c1nnc(NC(=O)Nc2ccccc2C(F)(F)F)s1)C1CCCCC1`, the Potency is reported as inconclusive: 17.8 µM [inhibitor, single point]. For `CCOc1ccc(-c2nnc(-c3ccccc3)o2)cc1`, the “activity, negative = inhibition” value was inactive: -0.0464%. For `COc1ccccc1OCC(=O)NC1CCCCCCC1`, the Potency was inconclusive: 12.6 µM [inhibitor, single point]. In the case of `O=C(COc1ccc(Br)cc1Br)NC1CCCC1`, the Potency is reported as inconclusive: 7.94 µM [inhibitor, partial curve, poor fit]. In the case of `COc1cccc(OCC(=O)NC2CC(=O)N(c3cccc(OC)c3)C2)c1` (configuration not stated), the “activity, negative = inhibition” value is reported as inactive: -2.23%. With `COc1ccc(-c2sc3ccccc3c2C#Cc2cncn2C)cc1` the Potency was inconclusive: 22.4 µM [inhibitor, single point]. For `Cc1ccccc1CSc1nc2c(sc3ccccc32)c(=O)n1CCCC(=O)NCCCOC(C)C`, the “activity, negative = inhibition” value was inactive: -1.39%. With `CC(C)(C)OC(=O)N1CCC(c2c(C(=O)N3CCN(C(=O)c4ccco4)CC3)cnn2-c2cccc(Cl)c2)CC1` the Potency was inconclusive: 14.1 µM [inhibitor, single point]. For `Cn1cc(Br)c(C(=O)N/N=C/c2cc3ccccc3nc2Cl)n1`, the “activity, negative = inhibition” value was inactive: -9.28%. For `COc1cc(C)nc(-c2csc(C)n2)n1`, the “activity, negative = inhibition” value was inactive: -23.4%. In the case of `C/C(=N\NC(=S)NCc1ccccc1)c1cccc(Br)c1`, the Potency is reported as inconclusive: 22.4 µM [inhibitor, single point]. For `CC(=O)c1ccc(NC(=O)c2nc(-c3ccc(Cl)cc3)n3c2CCCCC3)cc1`, the “activity, negative = inhibition” value was inactive: -0.571%. In the case of `CC[n+]1c(C)sc2c3ccsc3ccc21`, the “activity, negative = inhibition” value is reported as inactive: -5.61%. For `CC(C)c1ccc(C(C)NC(=S)NC2CCCCC2)cc1` (configuration not stated), the Potency was inconclusive: 15.8 µM [inhibitor, single point]. With `O=C(Cc1ccc(S(=O)(=O)N2CCCC2)s1)Nc1cccc([N+](=O)[O-])c1` the Potency was inconclusive: 14.1 µM [inhibitor, single point]. With `CCOc1ncccc1C(=O)N1CCN(c2cccc(C)c2C)CC1` the Potency was inconclusive: 8.91 µM [inhibitor, partial curve]. For `Cc1ccc(CN2CCSc3ccc(C(=O)NCc4ccccn4)cc32)cc1`, the Potency was inconclusive: 31.6 µM [inhibitor, single point]. In the case of `CCOc1ccc(NC(=O)CC2C(=O)N(c3ccccc3)C(=O)N2CCc2sccc2C)cc1` (configuration not stated), the Potency is reported as inconclusive: 15.8 µM [inhibitor, partial curve, poor fit]. With `COC(=O)[C@]1(C)N[C@H](CN(C)C(=O)c2ccc(F)cc2)[C@@H]2C(=O)N(Cc3ccccc3)C(=O)[C@@H]21` the “activity, negative = inhibition” value was inactive: 14.6%. In the case of `CN(C)S(=O)(=O)c1cccc(NC(=O)COC(=O)c2cc(-c3cccc(Br)c3)nc3ccccc23)c1`, the Potency is reported as inconclusive: 35.5 µM [inhibitor, single point]. For `OCCN1CCN(CC/C=C2/c3ccccc3CSc3ccccc32)CC1`, the Potency was inconclusive: 35.5 µM [inhibitor, partial curve, poor fit]. For `CCN(CC(O)CON=C1c2ccccc2-c2ccccc21)S(=O)(=O)c1ccc(Cl)cc1` (configuration not stated), the “activity, negative = inhibition” value was inactive: 0%. In the case of `CC(=O)c1ccc(OCc2cc(C(=O)N3CCOCC3)no2)cc1`, the “activity, negative = inhibition” value is reported as inactive: -3.91%. With `COc1cccc(C(=O)O/N=C(\N)c2ccccn2)c1OC` the “activity, negative = inhibition” value was inactive: 8.12%. For `O=C(Cn1cc(SCc2cccc(Cl)c2)c2ccccc21)N1CCCCC1`, the Potency was inconclusive: 14.1 µM [inhibitor, partial curve, poor fit]. With `Cc1c2cnn(CC(=O)NC(C)C)c(=O)c2c(C)n1Cc1cccc(Cl)c1` the “activity, negative = inhibition” value was inactive: -11.3%. For `CCOC(=O)c1c(C)[nH]c(C(=O)N(C)CC(=O)Nc2ccc(OC)cc2)c1C`, the “activity, negative = inhibition” value was inactive: 6.33%. With `COc1ccc(/C=C/c2nc(C#N)c(NCc3ccc(C)cc3)o2)cc1OC` the Potency was inconclusive: 1.12 µM [inhibitor, partial curve]. For `CC1(C)SC2c3ccccc3C(=O)N2[C@@H]1C(=O)NCc1ccco1` (some centres not stated), the Potency was inconclusive: 0.631 µM [inhibitor, full curve, poor fit]. In the case of `CCNC(=O)c1ccc2c(c1)sc1nc(-c3cccc(OC)c3)cn12`, the Potency is reported as inconclusive: 12.6 µM [inhibitor, partial curve]. In the case of `O=C(NCc1ccc(Cl)cc1)C1CCC(=O)N(C2CCCCCC2)C1` (configuration not stated), the Potency is reported as inconclusive: 3.55 µM [inhibitor, full curve, poor fit]. With `COCCN(C(=O)CSc1nnc(Nc2ccccc2F)s1)c1c(N)n(Cc2ccccc2)c(=O)[nH]c1=O` the “activity, negative = inhibition” value was inactive: 3.14%. In the case of `COc1ccc(C)cc1NC(=O)NCCC1=CCCCC1`, the Potency is reported as inconclusive: 10 µM [inhibitor, partial curve, poor fit]. With `Cc1ccc(N2C(=O)C(CC(=O)Nc3cccc(F)c3)N(CCc3ccccc3F)C2=O)cc1` (configuration not stated) the Potency was inconclusive: 14.1 µM [inhibitor, single point]. In the case of `CCOc1ccc(C2=CSC3=NCCN23)cc1`, the “activity, negative = inhibition” value is reported as inactive: -3.94%. With `CCCN(C(=O)CCc1nc(-c2ccc(C)cc2)no1)c1ccc(OCC)cc1` the Potency was inconclusive: 35.5 µM [inhibitor, single point]. With `Cc1nn(-c2ccccc2)c(/N=C/c2ccccc2O)c1-c1ccccc1` the Potency was inconclusive: 11.2 µM [inhibitor, single point]. For `CN1CC2([N+](=O)[O-])CC=C(Oc3ccccc3)C([N+](=O)[O-])(C1)C2` (configuration not stated), the Potency was inconclusive: 25.1 µM [inhibitor, single point]. In the case of `COc1ccc(Nc2c(-c3ccc(OC)cc3)nc3cnccn23)cc1`, the Potency is reported as inconclusive: 35.5 µM [inhibitor, single point]. For `COc1cccc(S(=O)(=O)N(C)C[C@@H]2OCc3cn(nn3)CCCC(=O)N([C@@H](C)CO)C[C@H]2C)c1`, the Potency was inconclusive: 35.5 µM [inhibitor, single point]. With `COc1cc(C)ccc1OCC(=O)NC1CCCCCC1` the “activity, negative = inhibition” value was inactive: -22.9%. For `COc1cc2ccccc2cc1C(=O)OCC(=O)N1CCOCC1`, the “activity, negative = inhibition” value was inactive: -12%. In the case of `COc1ccccc1N(C(=O)CCl)c1cn(C(C)=O)c2ccccc12`, the Potency is reported as active: 11.2 µM. With `O=C1Nc2ccccc2/C1=C/c1ccccc1Cl` the Potency was inconclusive: 20 µM [inhibitor, single point]. In the case of `O=C(NCc1ccco1)c1cc2sccc2n1Cc1ccccc1`, the Potency is reported as inconclusive: 7.08 µM [inhibitor, full curve, poor fit]. In the case of `CSCC[C@H](NC(=O)OC(C)(C)C)C(=O)N/N=C/c1cc2ccc(C)cc2nc1Cl`, the Potency is reported as inconclusive: 20 µM [inhibitor, partial curve, poor fit]. For `Cc1ccc(-n2nc(CO)c(C(=O)NCCC(C)C)n2)cc1C`, the Potency was inconclusive: 35.5 µM [inhibitor, single point]. In the case of `COCC(=O)N[C@@H]1c2ccccc2CC[C@@H]1OCc1ccccc1`, the “activity, negative = inhibition” value is reported as inactive: 3.74%. In the case of `N=c1c2c(-c3ccccc3)c(-c3ccccc3)n(Cc3ccco3)c2ncn1CCN1CCOCC1`, the Potency is reported as inconclusive: 35.5 µM [inhibitor, single point]. With `Cc1ccc(CNC(=O)c2ccc(Cn3c(SCc4ccc(F)cc4)nc4cccnc43)cc2)o1` the Potency was inconclusive: 35.5 µM [inhibitor, single point]. For `CCN1C(=O)[C@H]2[C@@H](c3ccc(C(F)(F)F)cc3)N[C@]3(CCCN(Cc4ccc(C)cc4)C3=O)[C@H]2C1=O`, the “activity, negative = inhibition” value was inactive: -3.76%. For `CCN(CC)CCCNC(=O)c1cc(-c2ccc(Cl)c(Cl)c2)on1`, the Potency was inconclusive: 35.5 µM [inhibitor, single point]. With `Cc1onc(-c2ccccc2Cl)c1C(=O)OCC(=O)N1CCC(C)CC1` the “activity, negative = inhibition” value was inactive: 2.97%. For `CCOC(=O)c1ccc(NC(=S)NCCc2ccccc2F)cc1`, the Potency was inconclusive: 35.5 µM [inhibitor, single point]. For `CCOC(=O)c1nnn(C(CC)C(=O)Nc2ccc(F)cc2)c1C(=O)OCC` (configuration not stated), the Potency was inconclusive: 12.6 µM [inhibitor, single point]. With `COc1ccc(Nc2ncnc3c2cnn3Cc2ccc(C)cc2)cc1` the Potency was inconclusive: 35.5 µM [inhibitor, single point].

Reference: PubChem BioAssay AID588855 (National Center for Advancing Translational Sciences (NCATS), 2011)
% is set by controls: 0 for no effect and ±100 for the full control effect; potency is the fitted concentration of half-maximal effect; tags give direction and shape of the fitted curve.
